Whole data set: some 110,000 compounds, median “z-score” near -0.1, cut for the highest 2% near 2. Some of the results follow. The source made the active and inactive calls.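 The calls were made as follows: active = z-score in the third read window above 3 or below -3; inactive = the rest.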

The values below come from PubChem BioAssay AID488969 (Vanderbilt High Throughput Screening Facility, 2010).

The target in this test is Metabotropic glutamate receptor 8 (Rattus norvegicus) (UniProt P70579). Briefly: rat mGluR8 modulators via GIRK flux, primary screen, cell-based, thallium flux, HTS (AID 488969). Conditions: HEK293 rat mGluR8, GIRK (G protein-gated inwardly rectifying potassium channel) thallium flux, FluoZin2; at 10 µM; stronger effect = higher value; submaximal glutamate (EC20) added with thallium.
Chain of UniProt P70579 (P70579 whole entry, looked up): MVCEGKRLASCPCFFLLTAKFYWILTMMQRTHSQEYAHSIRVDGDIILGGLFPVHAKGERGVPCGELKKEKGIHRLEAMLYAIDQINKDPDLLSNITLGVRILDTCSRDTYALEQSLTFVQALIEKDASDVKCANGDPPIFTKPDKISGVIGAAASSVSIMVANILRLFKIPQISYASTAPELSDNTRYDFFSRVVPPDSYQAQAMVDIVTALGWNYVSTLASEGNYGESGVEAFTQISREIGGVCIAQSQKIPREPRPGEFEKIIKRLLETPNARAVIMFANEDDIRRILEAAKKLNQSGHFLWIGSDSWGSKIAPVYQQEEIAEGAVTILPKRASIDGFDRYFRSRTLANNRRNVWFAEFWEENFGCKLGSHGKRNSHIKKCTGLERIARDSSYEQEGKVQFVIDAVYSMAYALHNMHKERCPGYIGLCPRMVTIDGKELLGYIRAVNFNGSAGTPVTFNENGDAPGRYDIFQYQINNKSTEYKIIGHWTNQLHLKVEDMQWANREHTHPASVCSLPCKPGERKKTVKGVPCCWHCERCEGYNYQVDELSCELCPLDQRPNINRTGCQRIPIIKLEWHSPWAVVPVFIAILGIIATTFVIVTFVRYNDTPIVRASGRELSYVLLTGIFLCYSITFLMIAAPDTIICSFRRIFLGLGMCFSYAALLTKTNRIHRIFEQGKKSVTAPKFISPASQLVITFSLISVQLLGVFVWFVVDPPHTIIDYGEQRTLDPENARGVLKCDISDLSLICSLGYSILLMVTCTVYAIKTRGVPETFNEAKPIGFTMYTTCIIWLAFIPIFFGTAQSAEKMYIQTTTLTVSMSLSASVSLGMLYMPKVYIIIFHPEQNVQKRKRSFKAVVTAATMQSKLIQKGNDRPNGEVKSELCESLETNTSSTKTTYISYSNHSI
For the compound `O=C1CNCc2[nH]c3ccccc3c2N1c1ccccc1`, the z-score was -0.0518. `CCOc1cc(C(=O)NCCN2C(=O)S/C(=C\c3cccnc3)C2=O)cc(OCC)c1OCC` gave a z-score of -0.324. `C/C(CC(=O)Nc1ccc(C)c(Cl)c1)=N\NC(=O)Cc1ccccc1`: the z-score is -0.205. The value for `CC(C)(C)NC(=O)C(c1ccccc1)N(C(=O)c1csnn1)C1CC1` (centres undefined) was 0.369; that for `COc1ccc(Oc2nc3ccccc3n3cccc23)cc1` was -0.22. Next, `COc1ccc(Nc2nc(-c3c[nH]c4ccccc34)cs2)cc1`: -0.0825; `COC(=O)N/N=C(\C)c1ccc2ccccc2c1OC(F)F`: 0.0536. Next, `CC(NC(=O)NC(N)=O)(C(F)(F)F)C(F)(F)F`: 0.67.

Compound `COc1ccc(-n2nc3ccc(NS(C)(=O)=O)cc3n2)cc1Cl` registered a z-score of 1.14.

On to `CC(C)(C)C1CCc2c(C(=O)NNC(=O)/C=C/C(=O)O)csc2C1` (centres undefined), for which the z-score is -0.42. Consider `C/C(N)=C(/C#N)C(=O)COC(=O)COc1ccc(Cl)cc1`, for which the z-score is -0.702. `O=C(CN1CCN(c2ccc(O)cc2)CC1)NC1CCCc2ccccc21` (centres undefined): the z-score was -0.00537. Next, `O=C(Nc1cccc(C(F)(F)F)c1)C12CC3CC(CC(C3)C1)C2`: 0.142; `COCC(C)NC(=O)C1CC(c2cccc(Br)c2)=NO1` (centres undefined): -0.185. `CCOCCCNC(=O)CN1CCN(Cc2ccccc2C)C1=O`: the z-score is -0.449. In turn, `CCOC(=O)CCNC(=O)CNC(=O)OCc1ccccc1` yielded a z-score of -0.374. As to `CCOC(=O)Cn1c(-c2cccnc2Cl)nc2ccccc21`, the z-score is -0.0219. In turn, `CC1CC(C)CN(C(=O)c2cc3c(s2)CCC3)C1` (centres undefined) displayed a z-score of -0.126. Turning to `Cc1ccc(C(=O)OCC(=O)Nc2sc3c(c2C#N)CCC3)cc1`, the z-score was -0.0585.

The compound `COC(=O)c1cc(Br)c(=O)n(-c2ccc(F)cc2)c1` showed a z-score of -0.0505.

Compound `CCc1nnc(NC(=O)OCc2ccccc2)s1` yielded a z-score of -0.0773. The value for `Cc1cc(/C=N/n2cnnc2)c(C)n1-c1cc(Cl)ccc1Cl` was -1.65. As for `Nn1c(SCC(=O)Nc2ccc(F)cc2)nnc1-c1ccccn1`, the z-score came to 0.617. In turn, `O=C(C1CCC(CNS(=O)(=O)c2cccc3nsnc23)CC1)N1CC=C(c2ccccc2)CC1` (centres undefined) yielded a z-score of -0.904.

In turn, `CC(C)(NC(=O)N1CCCC1)c1cccc(C(C)(C)NC(=O)N2CCCC2)c1` came in with a z-score of 0.129. Compound `CN1CCN(C2CC(=O)N(Cc3ccc(N4CCCC4=O)cc3)C2=O)CC1` (centres undefined) gave a z-score of -0.043. Regarding `O=C(CN1C(=O)c2ccccc2S1(=O)=O)Nc1ccccc1C(=O)NCc1ccco1`, the z-score was 0.0218.

Take `CC1(C)Cc2ccccc2C(=NCCCCCC(=O)O)N1`: the z-score was found to be 0.675. As for `COCCOC(=O)C1=C(C)N(Cc2ccccc2)C(=O)NC1c1cccc(OC)c1OC` (centres undefined), the z-score amounted to 0.0531. Regarding `O=C(Nc1nnc(-c2ccc(Cl)cc2)o1)c1ccc(N2C(=O)CCC2=O)cc1`, the z-score is active: 4.39. Compound `CC(=O)N1CCc2cc(NC(=O)c3ccc(C)cc3)ccc21` gave a z-score of -0.153.

Turning to `COc1cc(CC(=O)OCC(=O)Nc2cc([N+](=O)[O-])ccc2Cl)cc(OC)c1OC`, the z-score is -0.0706. `CCOc1ccc(C(=O)OCCN(C)C)cc1` came in with a z-score of -0.849.

The compound `Cc1c(NC(=O)C2CCCCN2S(=O)(=O)c2ccc(Cl)cc2)c(=O)n(-c2ccccc2)n1C` (centres undefined) had a z-score of 0.591.

`CCNC(=S)NC1CC2CCC(C1)N2Cc1ccccc1` (centres undefined): the z-score was -0.198. The value for `COc1ccccc1N(CC(=O)NCc1cccnc1)S(C)(=O)=O` was 0.0794.

`CCCC(=O)Nc1ccc(NC(=O)C2CC2)cn1`: the z-score was active: 13.2. Compound `Cc1[nH]nc2c1C(=O)CC(C)(C)C2` came in with a z-score of 0.54.

Take `Cc1ccc(CNC(=O)c2ccc(CN3CCOCC3)cc2)cc1`: the z-score is -0.0943. `O=C(Nc1ccc2c(c1)OCCO2)C1CCN(S(=O)(=O)c2cccs2)CC1` showed a z-score of 0.373. In turn, `CCCCOCCCNC(=O)N[C@@H](CCSC)C(=O)OC` had a z-score of -0.312. Compound `Cn1c(NCc2c[nH]c3ccccc23)nc2ccccc21` had a z-score of -0.594.

The compound `c1ccc(-c2cn3c(n2)CCC3)cc1` had a z-score of -0.186. `Cc1cc(NC(=O)CSc2nnc(NC(=O)C3CC(=O)N(c4ccccc4C)C3)s2)no1` (centres undefined) had a z-score of -0.369. `COc1ccc(Cl)cc1NC(=O)C(C)N1CCN(C/C=C/c2ccccc2)CC1` (centres undefined) yielded a z-score of -0.271.

As to `Cc1cc(NC(=O)C2CCCCC2C(=O)O)no1` (centres undefined), the z-score stood at 0.513. The compound `CC(=NCc1ccco1)c1c(C)[nH]n(-c2nc3ccccc3s2)c1=O` registered a z-score of 0.306. `N/C(=N\OC(=O)Oc1ccccc1)c1cccc([N+](=O)[O-])c1` yielded a z-score of -0.11. `CCN1CCN(C(=O)Cn2ncc3ccsc3c2=O)CC1` displayed a z-score of -0.337.

`O=C(/C=C/c1ccc([N+](=O)[O-])cc1)c1cccnc1`: the z-score is -0.543. The value for `Cc1ccc(S(=O)(=O)N2CCC(C(=O)Nc3ccc4c(c3)COC4=O)CC2)cc1` was -0.562; that for `COc1ccc(-c2cc(-c3ccccc3)c(C#N)c(SCC(=O)Nc3ncc(C)s3)n2)cc1` was -0.161. With `Cc1nc2cccc(C)n2c(=O)c1Cl`, the z-score came to 0.569. For the compound `COc1cccc2cc(-c3nnc(SCC(=O)Nc4cc(C(F)(F)F)ccc4Cl)n3N)oc12`, the z-score was -0.754. As for `COC(=O)c1cc(OC)c(OC)cc1NC(=O)Nc1ccccc1OC`, the z-score was -0.56. The value for `O=C(CCC(=O)c1cccs1)NCc1ccc(F)cc1` was -0.173; that for `O=S(=O)(c1ccccc1)c1cnn2c(C(F)(F)F)cc(-c3ccc(F)cc3)nc12` was 0.0892. `COc1cccc(C2c3c(oc4ccccc4c3=O)C(=O)N2c2ccccn2)c1` (centres undefined): the z-score was -0.584. The value for `CCCCCCNc1nc(-c2ccc(OC)cc2)c(CCC(=O)O)s1` was -0.372; that for `CCCCNC(=O)NS(=O)(=O)c1cnccc1Sc1ccc(Cl)cc1` was 0.0156; that for `CCOC(=O)CN1C(=O)c2ccccc2C1=O` was -0.0635. Consider `O=C1c2ccccc2C2=Nc3ccccc3SC(c3ccccc3F)C12` (centres undefined), for which the z-score was determined as 1.05. `CN(C)S(=O)(=O)c1cccc(-c2cn3cc(Cl)ccc3n2)c1`: the z-score is -1. `Cc1ccc(/C=C2\C(=O)Nc3ccccc32)o1` returned a z-score of -0.235. In turn, `COc1cc2c(cc1OC)C(c1ccsc1)CC(=O)N2` (centres undefined) yielded a z-score of 0.343. Turning to `Cc1nnsc1NC(=O)OCc1ccc(Cl)cc1Cl`, the z-score is -0.208. `O=C(Oc1ccccc1C(=O)Nc1ccccc1)c1ccc(Br)c([N+](=O)[O-])c1`: the z-score was 0.646. Regarding `CN(C)CCCNC1CS(=O)(=O)CC1O` (centres undefined), the z-score is -0.292.

On to `O=S(=O)(c1cccc(NC(=S)N2CCN(c3ccc(F)cc3)CC2)c1)C(F)F`, for which the z-score was -0.0651.

Regarding `Cc1ccccc1NC(=O)c1cc(S(=O)(=O)N2CCOCC2)cs1`, the z-score was 0.0399.

`CCn1cc(S(=O)(=O)CC(=O)Nc2cc(C)on2)c2ccccc21`: the z-score was 0.0844. The value for `Cc1ccc(CNC(=O)CS(=O)Cc2nc(-c3ccccc3C)oc2C)cc1` (centres undefined) was -0.577. The value for `Cc1cc(C(c2nnnn2Cc2ccccc2)N2CCOCC2)c(C)n1-c1ccc2c(c1)OCO2` (centres undefined) was -0.223; that for `CC(C)(C)Nc1nc(Oc2ccc(=O)n(-c3ccccc3)n2)nc(N2CCOCC2)n1` was -2.36; that for `Cc1cccc(COc2ccccc2/C=N/Nc2ccc([N+](=O)[O-])cc2)c1` was -0.246. `O=C(Nc1ccc(Br)cc1)c1cccnc1N1CCCCC1`: the z-score was -0.47.

Compound `CCCc1nc(N)c(C#N)c(-c2cccnc2)c1CC` yielded a z-score of 0.793. The compound `COCCNC(=O)/C(C#N)=C/C(C)=C/c1ccccc1` came in with a z-score of -0.0889. Consider `CCOC(=O)c1cc(-c2cccnc2)nn1-c1ccccn1`, for which the z-score was 0.419. `CC(=O)c1c(C)[nH]c(C(=O)N2CCN(C(=O)c3ccco3)CC2)c1C` displayed a z-score of -0.564. As for `CCOc1ccccc1NC(=O)C1CCN(C(=O)NCc2ccccc2)CC1`, the z-score was 0.346. Compound `O=C1C2C3C=CC(C4CC34)C2C(=O)N1/N=C/c1ccc(-c2ccccc2[N+](=O)[O-])o1` (centres undefined) registered a z-score of -0.386. The compound `CS(=O)(=O)N(CC(=O)Nc1cccc(Cl)c1Cl)c1ccccc1` showed a z-score of 0.0263. The compound `Cc1ccc(C(c2nnnn2C2CCCC2)N2CCN3CCCC3C2)cc1` (centres undefined) displayed a z-score of 0.717. In turn, `O=C(N=Nc1c(O)[nH]c2ccc(Br)cc12)c1cc(-c2cccc3ccccc23)n[nH]1` showed a z-score of -0.0915.

The compound `COc1ccc(C(=O)Nc2cc(C(C)=O)c(/C=C/N(C)C)oc2=O)cc1` registered a z-score of -1.53. Compound `CC1(C)CC(=O)N(CC(=O)NCc2ccc(F)cc2)c2ccccc2S1(=O)=O` displayed a z-score of 0.393. The compound `COc1cc2c(cc1OC)C(Nc1ccc(S(N)(=O)=O)cc1)=NC(C)(C)C2` came in with a z-score of -0.166. The compound `CCOC(=O)c1c(N)sn(-c2ccccc2)c1=S` returned a z-score of 0.0646. Regarding `COc1cc(C)c(S(=O)(=O)NCc2ccc3c(c2)OCO3)cc1C`, the z-score was -0.647.

Regarding `O=C(CCSCCc1ccccn1)Nc1c(F)cc(F)cc1Br`, the z-score was -0.0918. Regarding `Cc1ccc(-n2nc(C)c(Sc3ccccc3[N+](=O)[O-])c2N)cc1`, the z-score is -0.235.

Consider `Cc1cc2cc(C)c3nnc(SCc4ccccn4)n3c2cc1C`, for which the z-score was -0.371. For the compound `CCOC(=O)c1c(C)[nH]c(/C(C)=N/O)c1C`, the z-score was -0.215. Next, `CCOc1ncccc1C(=O)NCc1ccc(OC)cc1`: -0.142; `O=C(Nc1ccc(-c2nc3cc(NC(=O)c4cccs4)ccc3o2)cc1)c1cccs1`: -0.0965; `Nc1nc(Nc2ccc(Cl)cc2)n[nH]1`: 0.393. The value for `Nc1n[nH]c(S(=O)(=O)CCCc2ccccc2)n1` was 0.7; that for `Cc1cccc(C)c1NC1=C(Cl)C(=O)OC1OC(C)C` (centres undefined) was -0.166; that for `C=CCn1c(NCCOC)nc2c1c(=O)n(C)c(=O)n2C` was -0.0168. `CCc1nn(-c2ccccc2)c(N)c1-c1ccc(OC)c(OC)c1` came in with a z-score of 1.57. Regarding `O=C1C2C3C=CC(C3)C2C(=O)N1c1ccc(-c2nc3ccccc3o2)cc1` (centres undefined), the z-score was -0.419. On to `O=C(c1ccc2nc3ccccc3c(=O)n2c1)N1CCN(Cc2ccc3c(c2)OCO3)CC1`, for which the z-score was -0.487. As for `CCOC(=O)c1ccc(NC(=O)CSC2=NC(=O)C(CC)C(=O)N2)cc1` (centres undefined), the z-score was determined as 1.28. `Cc1ccccc1NC(=O)CSc1nc2cc3c(cc2cc1C)CCC3` gave a z-score of -0.0799. On to `COc1ccc(Nc2ncnc3c2cnn3-c2ccccc2)cc1OC`, for which the z-score was -0.331. `COC(=O)CNC(=O)COc1ccccc1` had a z-score of -0.267. For `c1ccc2c(c1)CC1(CCCC1)n1nnnc1-2`, the z-score is -0.648. As for `CCOC(=O)C1C(=O)NC(C)C1c1ccccc1` (centres undefined), the z-score stood at 0.0703.

In the case of `COc1ccc(OC)c(S(=O)(=O)Nc2ccccc2F)c1`, the z-score came to 0.127. Next, `O=C(CN1CCN(Cc2ccccc2Cl)C1=O)NC1CCCCCC1`: -1.05; `COc1ccc(-c2[nH]nc3c2C(c2ccsc2)C(C#N)=C(N)O3)cc1` (centres undefined): 0.0634; `N#Cc1ccc(CNc2cnccn2)cc1`: -0.0761. In the case of `CCn1c(COc2cccc(OC)c2)nnc1SCC(=O)Nc1ccccc1C(=O)OC`, the z-score was -1.81.
